Experimental data taken from article PMC4336329 (PLoS ONE, 2015).
The whole screen tested about 310,000 compounds, of which about 2,200 (0.71%) showed an effect of 50% or more. Effects have a minus sign here. The list shows a part of the results.

The molecules below were run against human ether-à-go-go-related gene (hERG) potassium channel (human, UniProt Q12809) (assay: primary screen, population patch clamp on CHO cells stably expressing hERG).
Sequence of human ether-à-go-go-related gene (hERG) potassium channel (Q12809 whole entry, looked up): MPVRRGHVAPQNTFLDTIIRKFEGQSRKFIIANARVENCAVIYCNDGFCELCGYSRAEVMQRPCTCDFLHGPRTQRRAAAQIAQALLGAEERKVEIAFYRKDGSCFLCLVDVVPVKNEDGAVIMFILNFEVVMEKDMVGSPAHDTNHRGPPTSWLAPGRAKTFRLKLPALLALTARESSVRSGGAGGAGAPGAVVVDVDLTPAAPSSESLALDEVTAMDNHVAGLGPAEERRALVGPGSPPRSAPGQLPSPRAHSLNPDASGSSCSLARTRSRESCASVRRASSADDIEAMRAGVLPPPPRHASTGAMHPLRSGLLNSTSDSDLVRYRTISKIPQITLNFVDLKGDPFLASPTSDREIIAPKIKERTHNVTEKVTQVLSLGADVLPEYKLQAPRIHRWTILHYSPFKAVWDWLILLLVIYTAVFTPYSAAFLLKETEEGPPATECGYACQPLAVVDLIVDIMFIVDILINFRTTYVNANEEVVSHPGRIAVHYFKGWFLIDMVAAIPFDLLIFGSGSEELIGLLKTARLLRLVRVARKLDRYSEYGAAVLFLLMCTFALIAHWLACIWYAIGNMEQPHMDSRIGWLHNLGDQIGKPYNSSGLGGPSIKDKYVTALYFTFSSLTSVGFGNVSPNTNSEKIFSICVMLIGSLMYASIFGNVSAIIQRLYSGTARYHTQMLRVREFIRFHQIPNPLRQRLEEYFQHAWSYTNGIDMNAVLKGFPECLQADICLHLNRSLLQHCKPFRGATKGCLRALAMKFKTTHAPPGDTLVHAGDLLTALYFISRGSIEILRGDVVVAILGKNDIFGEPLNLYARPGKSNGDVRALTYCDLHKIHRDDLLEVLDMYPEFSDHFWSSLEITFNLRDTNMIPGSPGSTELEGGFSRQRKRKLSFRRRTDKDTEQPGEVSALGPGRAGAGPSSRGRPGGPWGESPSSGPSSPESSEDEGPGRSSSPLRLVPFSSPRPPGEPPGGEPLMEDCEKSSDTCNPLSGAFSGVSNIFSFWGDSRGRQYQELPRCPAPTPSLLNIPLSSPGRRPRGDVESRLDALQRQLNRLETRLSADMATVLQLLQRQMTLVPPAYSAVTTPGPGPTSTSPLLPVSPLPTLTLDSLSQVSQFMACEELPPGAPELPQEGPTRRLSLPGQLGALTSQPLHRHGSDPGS

Row | Compound | hERG current change (%, negative = inhibition) at 1uM [%]
1 | CC(C)CC(=O)Nc1ccc(C(=O)NNC(=O)C(c2ccccc2)c2ccccc2)cc1 | 12.2
2 | C=CC[n+]1c(-c2ccccc2)csc1NC(C)(C)C.[Br-] | 11
3 | COc1ccc(CCNC(=O)CN(c2cccc([N+](=O)[O-])c2)S(C)(=O)=O)cc1OC | 14.2
4 | O=C(NCc1ccc2c(c1)OCO2)c1nc(Cn2cc([N+](=O)[O-])cn2)no1 | -12.9
5 | O=C(C(=O)N1CCOCC1)c1cn(Cc2c(F)cccc2Cl)c2ccccc12 | 11.6
6 | CCC(C)C(NC(=O)c1ccc(Cl)cc1Cl)C(=O)O (stereo not drawn) | 16.7
7 | COc1ccc2nc(NC(=O)CCNS(=O)(=O)c3ccc4c(c3)oc(=O)n4C)sc2c1 | 2.87
8 | CC(OC(=O)c1n[nH]c2ccccc12)C(=O)Nc1ccccc1[N+](=O)[O-] (stereo not drawn) | 11.4
9 | Cc1cccc(C)c1Nc1c(-c2ccc(N3CCOCC3)cc2)nc2cnccn12 | 7.49
10 | CCOC(=O)CON1C(=O)C(=O)N(OCC(=O)OCC)C2CCCCC21 (stereo not drawn) | 11.4
11 | CC(NC(=O)CCCCCN1C(=O)c2ccccc2C1=O)c1ccc2c(c1)CCCC2 (stereo not drawn) | 0.26
12 | CSc1nc2ccc(S(=O)(=O)N3CCOCC3)cc2s1 | 10.4
13 | Cc1ccc(S(=O)(=O)NCC(=O)NC2CC2)cc1 | 18
14 | O=C(CN1C(=O)CSC1=O)Nc1ccc(C(=O)O)cc1 | 3.19
15 | Cc1nnc(SCc2ccccc2CSc2nnc(C)s2)s1 | 12.9
16 | O=C1CC2(CCCC2)Oc2ccc(F)cc21 | -0.826
17 | CC(C)C[C@H](NC(=O)[C@H](Cc1ccccc1)n1c(=O)[nH]c2ccccc2c1=O)C(=O)N1CCC[C@H]1C(=O)O | 8.84
18 | O=C(CCC(=O)c1cccs1)OCC(=O)N1CCN(C(=O)c2ccco2)CC1 | 11.7
19 | Cc1ccc(C)c(C(=O)CSc2nnc(C)s2)c1 | 8.84

Row | Compound | hERG current change (%, negative = inhibition) at 1uM [%]
20 | CCOc1ccc(Nc2nc3ccccc3n3nnnc23)cc1 | 6.56
21 | Cc1cccc(C)c1OCC(O)Cn1nnc2ccccc21 (stereo not drawn) | 6.24
22 | Cc1c(Cl)cccc1NC(=O)CC1Oc2ccccc2NC1=O (stereo not drawn) | 14.5
23 | CCCOc1ccc2ccccc2c1/C=N/n1c(C)nnc1-n1nc(C)cc1C | 6.14
24 | COc1cccc(N=Nc2c(N)[nH]n3c(=O)c4c(nc23)CCCC4)c1 | 3.19
25 | COc1ccc(Cl)cc1C(=O)n1cnc2ccccc21 | 16.7
26 | C=CCn1c(SCc2cc(=O)n3cc(C)ccc3n2)nnc1-c1cccc(C)c1 | -15.6
27 | Cc1cccc(-n2ncc3c2CCCC3NC(=O)c2ccc[n+]([O-])c2)c1C (stereo not drawn) | 8.13
28 | COc1ccccc1C(=O)NNC(=O)C(=O)NC(C)C | 6.02
29 | OC[C@@H](O)C1OC2NC(=S)OC2C1O (stereo partly drawn) | 9.58
30 | Cc1ccc(NC(=O)COC(=O)/C=C/c2ccccc2)cc1S(=O)(=O)N1CCOCC1 | 6.56
31 | COc1cccc(N2[C@@H](CC(=O)O)c3ccccc3S2(=O)=O)c1 | 19.9
32 | CC1=CC(C)(C)Nc2ccc(OC(=O)C(Cc3ccccc3)N3C(=O)C4CCCCC4C3=O)cc21 (stereo not drawn) | 9.08
33 | C/C(=N\O)C(=O)NCCN1CCCCC1 | 3.26
34 | O=C(Nc1nc(-c2ccccn2)cs1)c1ccccc1-n1cnnn1 | 2.63
35 | Cc1cc(C)cc(N(C(=O)CNC(=O)c2cccs2)C(C(=O)NC2CCCC2)c2cccnc2)c1 (stereo not drawn) | 14.3
36 | CCOc1cccc(C(=O)Nc2ccc3ccccc3c2)c1 | 17.6
37 | COC(=O)c1ccc2nc(NC(=O)C(C)C)sc2c1 | 7.46
38 | COc1cccc(C2=CC(=O)C[C@H](c3ccc(F)cc3)C2)c1 | 3.47

Row | Compound | hERG current change (%, negative = inhibition) at 1uM [%]
39 | COc1ccc(Cl)cc1NC(=O)C(C)OC(=O)C1=NNC(=O)CC1 (stereo not drawn) | 9.19
40 | CCCc1n(CC(O)COC2CCCCC2)c2ccccc2[n+]1C.[I-] (stereo not drawn) | 7.07
41 | CC(=O)Nc1ccc(N/C=C/C(=O)c2ccc(C)cc2)cc1 | 17.8
42 | CCN(CC(=O)NCc1cccs1)C(=O)c1ccc(S(=O)(=O)N(C)C)cc1 | 18.7
43 | COc1ccc(CN2CCNC(=O)C2CC(=O)N2CCCCO2)c(OC)c1 (stereo not drawn) | 13.3
44 | CN(C(=O)c1cccc(Cl)c1)C1CCCN(Cc2ccccc2F)C1 (stereo not drawn) | 7.33
45 | C/C=C(/C)C(=O)O[C@@H]1c2cc3c(c4c2[C@@]2(CO4)C(=O)C(OC)=C(OC)C=C2C[C@@H](C)[C@H]1C)OCO3 | 4.77
46 | O=C(Nc1ccsn1)c1ccc(Cl)cc1Cl | 17.8
47 | COC(=O)CC(NC(=O)c1ccco1)c1ccc(C(C)C)cc1 (stereo not drawn) | 9.91
48 | c1ccc(OCCSc2nnc3sc4ccccc4n23)cc1 | 13
49 | Nc1[nH]nc2nc3ccccc3cc12 | 16.9
50 | O=C(CN1CCOCC1)N/N=C/c1ccc(-c2cccc(Cl)c2Cl)o1 | -48.8
51 | NC(=O)C1CCN(CC(O)COc2ccc(-c3ccccc3)cc2)CC1 (stereo not drawn) | 4.59
52 | O=C1CN(C(=S)Nc2ccccc2Cl)CCN1 | 5.18
53 | CN1CCCCC1CCN1c2ccccc2Sc2ccc(S(C)=O)cc21.O=S(=O)(O)c1ccccc1 (stereo not drawn) | -25.3
54 | CC(=O)c1nc(N2C(=O)CC(Cc3cccc(C)c3)C2=O)sc1C (stereo not drawn) | -1.96
55 | CC1Cc2ccccc2N1C(=O)c1cccnc1 (stereo not drawn) | 3.36
56 | CC(C)=CCOc1ccc2c(C)c(CC(=O)N3C[C@H]4C[C@@H](C3)c3cccc(=O)n3C4)c(=O)oc2c1C | -18.5
57 | O=S(=O)(c1ccccc1)N1CCN(C2CCN(Cc3ccccc3)CC2)CC1 | -64.1
